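These data come from cells grown in 96-well plates and exposed to compound for 48 hours at five concentrations. GI50 is the concentration that inhibits growth by half. TGI is the concentration that stops growth completely.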

This assay concerns NCI-H322M lung. As to the kind of experiment: growth of human tumour cells (NCI), 48 h.
`CC1=C(Br)C(Br)=C(C)S1=O`: the TGI turned out to be 34.5 µM. For `CCOC(=O)N1CCN(C(=O)c2ccc(C(F)(F)F)nc2Nc2cc(Cl)ccc2C)CC1`, the GI50 was 28.1 µM and the TGI is over 100 µM.

In the case of `COn1cc(C=O)c2ccccc21`, the TGI was over 100 µM.

Consider `O=C(CCCN1CC=C(n2c(=O)[nH]c3ccccc32)CC1)c1ccc(F)cc1`, for which the GI50 was 71 µM and the TGI is over 100 µM. `C=CCn1c(=O)n(CC=C)c(=O)n(CC=C)c1=O` gave a TGI of over 100 µM.

In the case of `CCN(CC)CCNCC(=O)Oc1ccc(/C=C/C(=O)CC(=O)/C=C/c2ccc(OC(=O)CNCCN(CC)CC)c(OC)c2)cc1OC`, the GI50 was 10.8 µM and the TGI is 25.1 µM. For `CC(=O)c1c(CBr)n([O-])c2ccccc2[n+]1=O`, in that order: 17.7 µM and 31.9 µM. `Cc1ccc(N(CSc2ccc(Cl)cc2)CSc2ccc(Cl)cc2)cc1`: the GI50 was 2.72 µM and the TGI came to 42.3 µM. Consider `COc1cc2c(cc1OC)C13CCN4CC5=CCOC6CC(=O)N2C1C6C5CC43O` (stereo unspecified), for which the TGI was over 100 µM.

In turn, `O=C(c1ccccc1)c1c(-c2ccccc2)[nH]n(-c2ccc([N+](=O)[O-])cc2)c(=O)c1=O` gave a TGI of over 100 µM. `O=C(CN1CCCCC1)N1CCc2c([nH]c3ccccc23)C1c1cccnc1` (stereo unspecified) had a TGI of over 100 µM. Still for that read-out and setting: for `CCOC(=O)CC1c2ccc(O)cc2OC(=O)C1c1ccc([N+](=O)[O-])cc1` (stereo unspecified) the value was over 100 µM.

In turn, `CCOC(=O)c1csc(NC(=O)C(C)N2CCCCC2)n1` (stereo unspecified) yielded a TGI of over 100 µM. On the same count and under the same terms, as for `O=C(C[n+]1ccccc1)NNC(=O)/C(=C/c1ccc2c(c1)OCO2)NC(=O)c1ccccc1`, the figure is over 100 µM. In the case of `CCCCCc1c(C)[nH]c(/C=C2\N=C(c3ccc[nH]3)C=C2CC)c1C`, the GI50 was 0.0304 µM and the TGI amounted to 0.788 µM. Take `CCN1C(=O)N(CC)C2C1NC(=S)N2/N=C/C=C/c1cccs1` (stereo unspecified): the GI50 was 0.67 µM and the TGI was over 100 µM. For `C#C[C@]1(O)CC[C@H]2[C@@H]3CC=C4c5sc(Nc6ccccc6)nc5CC[C@]4(C)[C@H]3CC[C@@]21C`, in that order: 3.56 µM and 17.8 µM. For `Nc1nc(Nc2ccccc2)c2ncn(Cc3cc4c(cc3Br)OCO4)c2n1`, in that order: 0.141 µM and 38.8 µM. For `O=C1/C(=C\c2cccn2Cc2ccccc2)c2ccccc2N1c1c(Cl)cccc1Cl`, in that order: 8.79 µM and over 100 µM. The molecule `C/C(=N\Nc1cc(CN2CCCC2)c(-c2ccc(Cl)cc2)nn1)C(=O)O` returned a TGI of over 100 µM. Same read-out and setting: as for `COC(=O)C12C3C4C5(C(=O)OC)C(C1C35C(=O)N(C(C)C)C(C)C)C42C(=O)N(C(C)C)C(C)C` (stereo unspecified), the figure is over 50 µM. Turning to `CCOC(=O)[C@H](CCCNC(=O)OC(C)(C)C)NCc1ccc(OC)c(OC)c1`, the TGI was over 100 µM. Still for that read-out and setting: for `Clc1ccc(Cl)c(Nc2ccnc(SCc3ccccc3)n2)c1` the value was over 100 µM. `CC(=O)O[C@@H]1C[C@]2(C(C)C)O[C@@]1(C)[C@@H]1CCC(C)=C1[C@@H]2OC(=O)/C=C/c1ccccc1`: the GI50 is over 100 µM and the TGI is over 100 µM.

`CC(=O)c1csc2c1C(=O)c1scc(C(C)=O)c1C2=O` returned a TGI of 2.83 µM. Still for that read-out and setting: as for `O=C(O)c1cccc(OCCO)c1`, the figure is over 100 µM. Consider `COc1cc(NC(C)CCCN)c2nccc(C)c2c1OC` (stereo unspecified), for which the GI50 is 15 µM and the TGI amounted to 30.4 µM. `O=[N+]([O-])c1ccc(-n2nnc(C3=NCCCN3)c2-c2ccc(Cl)cc2)cc1` returned a TGI of over 100 µM. Still for that read-out and setting: as for `O=C(O)c1c(-c2nccc3ccccc23)[nH]c(-c2ccccc2)c1S(=O)(=O)O`, the figure is over 100 µM.

Source of the values: PubChem BioAssay (NCI).
